For 56 compounds, GI50 and TGI results are on record in PubChem BioAssay (NCI).

Each structure is given as a SMILES string.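 Assay format: 96-well plates, 48-hour exposure. The concentration for 50% growth inhibition is given as GI50. At the TGI there is no net growth.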

For the assay, the system named is NCI-H322M lung. The assay is described as follows: inhibition of tumour cell growth, NCI panel, 48 h.

With `COC(=O)C1(C2CC/C(C)=C/CC/C(C)=C/CC[C@@]3(C)O[C@@H]3C2)CC1` (stereo not given in full), the GI50 is more than 100 µM and the TGI was more than 100 µM. For the compound `CO[C@@]12C[C@H]3[C@@H]([C@@H](O)[C@@H](OC(=O)/C=C/c4ccccc4)[C@@]4(O)C(C)(C)CCC[C@]34C)[C@@H](C)C1=CC(=O)O2`, the GI50 is 5.1 µM and the TGI was 46.7 µM. `Cn1c2ccccc2c2nc3ccccc3c(Cl)c21` gave a TGI of more than 100 µM. As for `Cc1ccc(NC(=O)c2[nH]c(SCCN(C)C)nc2-c2ccc(F)cc2)cc1C#Cc1cnc2cccnn12`, the GI50 is 2.07 µM and the TGI was determined as 4.21 µM. In the case of `CC1CCP(=O)(c2ccccc2)CC1` (stereo not given), the TGI was more than 100 µM. On to `O=C1c2ccn(CCCCN3CCCCC3)c2C(=O)c2c1c(O)c1ccccc1c2O`, for which the GI50 is 9.32 µM and the TGI is 23.3 µM.

As for `Cc1cccc2c1O/C(=C\c1ccc([N+](=O)[O-])o1)C2=O`, the GI50 is 3.6 µM and the TGI is 16.4 µM. On to `COc1ccc(CC(NC(=O)[C@H](C)NC(=O)CN2CCOCC2)C(=O)N[C@@H](Cc2ccccc2)C(=O)[C@@]2(C)CO2)cc1` (stereo not given in full), for which the GI50 is 1.25 µM and the TGI came out at 5.71 µM.

`COc1cc2c([C@@H](OC(=O)c3ccccc3)c3ccc4c(c3)OCO4)nccc2c(OC)c1OC` showed a TGI of more than 100 µM. For the compound `O=S(=O)(O)c1cc(N=Nc2cc(S(=O)(=O)O)c3cccnc3c2O)ccc1/C=C/c1ccc(N=Nc2cc(S(=O)(=O)O)c3cccnc3c2O)cc1S(=O)(=O)O`, the TGI was more than 100 µM. As to `COc1ccc(-c2nnc(N3CCN(C(=O)CN4CCN(c5ccc(Cl)cc5)CC4)CC3)nc2-c2ccc(OC)cc2)cc1`, the GI50 is more than 100 µM and the TGI is more than 100 µM. Turning to `O=C(NNS(=O)(=O)c1ccc(F)cc1)c1cccnc1Nc1ccc(Cl)cc1Cl`, the GI50 was 31.1 µM and the TGI was more than 100 µM. `CC(=O)NC(CCCNC(=O)NCCCl)C(=O)NCc1ccccc1` (stereo not given) showed a TGI of more than 100 µM. For `O=c1c2ccccc2[nH]c(=S)n1-c1ccc(N=Nc2cccc3cc(O)ccc23)cc1`, the TGI is more than 100 µM. With `Cc1cnoc1NS(=O)(=O)c1ccc(Nc2nnc(/C=C/c3c(O)ccc4ccccc34)c(=O)n2N)cc1`, the TGI is more than 100 µM.

For the compound `CCO/C(O)=C(/C(=N)N1CCCC1)C(=O)Nc1ccc(F)cc1`, the TGI is more than 100 µM. Turning to `CCOC(=O)/C(C[C@H]1OC(C)(C)O[C@@H]1[C@H]1COC(C)(C)O1)=N/O`, the TGI was more than 100 µM.

Consider `CC(=O)/C=C/C1=C(c2cccs2)c2ccccc2CC1`, for which the GI50 was 36.6 µM and the TGI is more than 100 µM. As for `C(=C\c1nccc2c1[nH]c1ccccc12)/c1ccccc1`, the GI50 was 6.19 µM and the TGI worked out at 56.2 µM.

The compound `CCCCNC(=O)CCN(C(=O)O)S(=O)(=O)c1ccc(NC(=O)c2ccccc2)cc1` registered a TGI of more than 100 µM. Consider `COC(CN(C=O)[C@@H](c1ccc(Cl)cc1)c1cc2ccccc2o1)OC`, for which the TGI was 30.9 µM.

In the case of `COC(=O)OCc1ccc2c(c1)C(=O)c1c-2n(CCCBr)c(=O)c2cc([N+](=O)[O-])ccc12`, the GI50 is more than 100 µM and the TGI was more than 100 µM. Regarding `C[C@@H](Oc1ccc2[nH]nc(/C=C/c3cnn(CCO)c3)c2c1)c1c(Cl)cncc1Cl`, the GI50 is 0.756 µM and the TGI amounted to 4.33 µM. As to `Clc1ccc(C=NC23CC4CC(CC(C4)C2)C3)cc1Cl`, the TGI was more than 10 µM.

The compound `O=C(O)C1(Cc2ccc3c(c2)CCC3)Cc2ccccc2C1=O` (stereo not given) gave a TGI of more than 100 µM. Still for that read-out and setting: with `COC(=O)NC(=O)c1cn(CCCOC(=O)CCCCCCCCC(=O)OCCCn2cc(C(=O)NC(=O)OC)c(=O)[nH]c2=O)c(=O)[nH]c1=O` the figure was more than 100 µM. For the compound `O=c1c2ccccc2nc(-c2ccccc2)n1O`, the TGI was more than 100 µM. Still for that read-out and setting: the same measure for `CCCC(=O)Oc1ccc2c(C)cc(=O)oc2c1OC(=O)CCC`: more than 100 µM; for `Cc1nc(Nc2ccccc2)sc1C(=O)NNc1ccc([N+](=O)[O-])cc1[N+](=O)[O-]`: more than 100 µM. Regarding `COc1ccc(/C=C/C(=O)c2cc3c(N)c(C(=O)Nc4ccccc4C)sc3nc2C)cc1`, the GI50 is 2.14 µM and the TGI is more than 50 µM.

As for `O=[N+]([O-])c1ccc2c(c1)nc(Cc1ccc(Cl)cc1)n2C[C@@H]1CCCN2CCCCC12` (stereo not given in full), the TGI was more than 43.6 µM. Consider `COC1CC(CC2CCC(C)C(C(C)C(=O)O)O2)OC2(OC(C)(C3CCC(C)(C4OC(C5OC(O)(CO)C(C)CC5C)CC4C)O3)CC2C)C1C` (stereo not given), for which the TGI amounted to 23.8 µM. `Cc1cc(C)c2c(SCc3ccc(Cl)cc3Cl)nc(N)nc2n1` had a TGI of more than 100 µM. `CC(C)(CC#N)c1cc(CC(C)(C)c2cc(CC(C)(C)c3cc(C(C)(C)C4(C)OCCO4)no3)no2)no1` yielded a TGI of more than 100 µM. The compound `CN1CCN(CCNc2ccc(CO)c3sc4ccccc4c(=O)c23)CC1` displayed a TGI of 17.5 µM. On to `CC(CN1CCN(CC(C)Nc2ccnc3cc(Cl)ccc23)CC1)Nc1ccnc2cc(Cl)ccc12` (stereo not given), for which the TGI was more than 37 µM. The same measure, in the same setting: with `Nc1ccc(-c2nc3cc(F)ccc3s2)cc1CO` the figure was more than 66.5 µM. In the case of `CN1CCN(c2ccc(NC3=C(Cl)C(=O)c4ncccc4C3=O)cc2C#N)CC1`, the GI50 was 13.8 µM and the TGI came to 26.7 µM.

In turn, `CN(/N=C\c1ccc2ccccc2c1)C1=NCCN1` showed a TGI of 49.5 µM. `Cn1nc2ccc3nccc(N(CCO)CCO)c3c2n1` yielded a TGI of more than 100 µM. For `CCOC(=O)c1[nH]c(CN(C)Cc2[nH]c(C(=O)OCC)c(C)c2C(=O)OCc2ccccc2)c(C(=O)OCc2ccccc2)c1C`, the TGI was more than 100 µM. In the case of `Brc1ccc2c(c1)C1C(CO2)C(c2ccccc2)=NN1c1ccccc1` (stereo not given), the TGI was more than 100 µM. For the compound `O=C(O)c1cc(Cc2ccc(O)c(C(=O)O)c2)ccc1O` (tested in a mixture with another compound), the GI50 was 11.4 µM and the TGI came to 23.6 µM. In turn, `COC(=O)c1ccccc1NC(=O)C(=O)CC(=O)CC(c1ccccc1)c1c(O)c2ccccc2oc1=O` (stereo not given) displayed a TGI of more than 100 µM. Take `COc1cc2cc(Oc3ccc(NC(=O)Nc4ccc(Cl)c(C(F)(F)F)c4)cc3)c(C)nc2cc1OC`: the GI50 is 2.05 µM and the TGI came out at 6.28 µM.

In the case of `CC(=O)[C-](C(C)=O)c1ccccc1.CC(=O)[C-](C(C)=O)c1ccccc1.CC[O-].CC[O-].[Ti+4]`, the GI50 was more than 100 µM and the TGI is more than 100 µM.

For `C=C1CC2(CCCC3(CC(=C)C(=O)O3)C2(C)C)OC1=O` (stereo not given), the TGI was determined as 27.4 µM. `COc1cc2c(c(OC)c1OC)C(=O)[C@H](Br)[C@H]2NC(=O)NCCCl` registered a TGI of more than 100 µM. As for `CCN(CC)Cc1cc(Nc2c3ccccc3nc3c4ccccc4n(C)c23)ccc1O`, the TGI is 24.5 µM. In turn, `O=C(O)/C(=C\c1ccccc1Cl)S(=O)(=O)c1ccccc1` displayed a TGI of more than 100 µM.

Turning to `CC1(C)CC(=O)C(=[N+]=[N-])C(=O)C1`, the TGI is more than 100 µM. Compound `CC1(C)CCC[C@]2(C)[C@@H]1CC[C@@]13O[C@@H]1C1=C(CO)C(=O)OC1=C[C@@H]23` registered a TGI of 43.8 µM. Take `C=CCC(N[C@H](CO)c1ccccc1)c1cn(S(=O)(=O)c2ccc(C)cc2)c2ccccc12` (stereo not given in full): the GI50 was 11.1 µM and the TGI was 44.8 µM.

Consider `C1=C(c2ccccc2)C(c2ccc(OCCN3CCCCC3)cc2)Oc2ccccc21` (stereo not given), for which the GI50 was 1.65 µM and the TGI amounted to 3.61 µM. Take `COC(OC)C1OC(CO)C(n2cc(F)c(=O)[nH]c2=O)C1O` (stereo not given): the TGI was more than 100 µM. Still for that read-out and setting: with `CCSC1=N/C(=C/c2ccccc2O)C(=O)N1` the figure was more than 100 µM.
